Measurements as given in PubChem BioAssay AID686971 (National Center for Advancing Translational Sciences (NCATS), 2013).
The whole screen tested about 360,000 compounds, of which about 7,500 (2.1%) were called active. Inconclusive results, whose numbers are uncertain, are shown with a selection of clear calls. The call rests on the fitted dose curve; in most records, active means well fitted cell-killing curve with a large enough effect; inconclusive means small, poorly fitted or top-dose-only effect, or effect the other way, or another doubt; inactive means no such curve, though single readings can be large or run the other way. Potencies of inconclusive entries are left out as doubtful fits.

Assay: qHTS for induction of synthetic lethality in tumor cells producing 2HG: qHTS for the HT-1080-IDH1KD cell line;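 on activity, negative = toxicity: 0% = DMSO wells and -100% = cell-free medium wells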
Conditions: HT-1080 IDH1 knockdown viability, ATP luminescence, 48 h; activity, negative = toxicity: at 46.1 µM (top of the series) unless noted
How it was run: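 Luminescent ATP read-out (CellTiter-Glo, 10 min at room temperature) after 48 h compound exposure at 37 °C gave viability of IDH1-knockdown HT-1080 cells. Activity was normalised to DMSO and cell-free wells, then fitted as concentration-response curves.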
Potency means the concentration at half of the fitted maximal effect; tags describe the fitted curve by direction and shape.

| SMILES | Potency | activity, negative = toxicity |
| --- | --- | --- |
| Cc1ccc(Cn2c(NC(=O)c3ccco3)nc3ccccc32)cc1 | inconclusive [cytotoxic, partial curve] |  |
| Cc1ccc(SCC(=O)Nc2ccc(-c3nnc(-c4ccco4)o3)cc2)cc1 | inconclusive [cytotoxic, single point] |  |
| Cc1ccc(C(c2nnnn2C2CCCC2)N2CCc3ccccc32)cc1 (centres undefined) | inactive |  |
| CN(C1=NS(=O)(=O)N=C(N(C)c2ccccc2)O1)c1ccccc1 | inconclusive [cytotoxic, single point] |  |
| O=C(CN1CCOCC1)Nc1ccccc1Sc1ccc(Cl)cc1 | inactive |  |
| C/C(CC(=O)Nc1ccc(OCc2ccccc2)cc1)=N\NC(=O)C(=O)Nc1ccc(C)c(Cl)c1 | inconclusive [cytotoxic, single point] |  |
| CCOC(=O)C1CCN(c2c(NCCN(CC)c3ccccc3)c(=O)c2=O)CC1 | inconclusive [cytotoxic, single point] |  |
| Cc1ccc(NC2=NCC(Cc3ccc(Br)cc3)S2)cc1 (centres undefined) | inconclusive [cytotoxic, single point] |  |
| CCN(CC)c1ncnc2c1ncn2[C@H]1CN(Cc2ccccc2)C[C@@H](CO)O1 | inactive |  |
| CC1CN(C(=O)N2c3ccccc3Sc3ccccc32)C(C)CC1=O (centres undefined) | inconclusive [cytotoxic, partial curve] |  |
| Cn1c(N/N=C/c2c[nH]c3ccccc23)nc2ccccc21 | inconclusive [cytotoxic, single point] |  |
| COc1ccc(C(=O)NC2CCCc3ccccc32)cc1Br (centres undefined) | inconclusive [cytotoxic, single point] |  |
| COCc1cc(N2CCCCC2)nc(-c2ccccc2)n1 | inconclusive [cytotoxic, partial curve] |  |
| CCc1sc(C(=O)Nc2ccc(NC(C)=O)cc2)cc1C | inconclusive [rising, partial curve] |  |
| Cc1nc2ccc(C(=O)N3c4ccccc4N=C(c4ccc(C(F)(F)F)cc4)C3C(=O)NC(C)(C)C)cc2[nH]1 (centres undefined) | inconclusive [cytotoxic, full curve, poor fit] |  |
| O=C(C(=Cc1ccccc1)CN1CCCCC1)c1ccccc1 | active: 4.61 µM |  |
| CC(C)c1ccccc1OCC(O)CN1CCN(S(=O)(=O)c2ccc([N+](=O)[O-])cc2)CC1 (centres undefined) | inconclusive [cytotoxic, single point] |  |
| Cc1ccc(C)c(C(=O)COC(=O)Cn2c(C)csc2=O)c1 | inactive |  |
| COc1ccc(NC(=O)N2CCc3ccccc32)cc1 | inconclusive [cytotoxic, single point] |  |
| COc1cc(/C=C2\CCC(C)C3=C(c4cc(OC)c(OC)c(OC)c4)C(C#N)=C(N)OC32)cc(OC)c1OC (centres undefined) | inconclusive [cytotoxic, single point] |  |
| Cc1ccc(SC[C@H](C)CN2CCC(NC(=O)OCc3ccccc3)CCC2=O)cc1 (some centres undefined) | inconclusive [cytotoxic, single point] |  |
| CCCCn1nc(NC(=O)c2cccs2)c2cc3ccccc3nc21 | inconclusive [cytotoxic, single point] |  |
| COc1cc(N2C(=O)C=CC2=O)ccc1N1C(=O)C=CC1=O | active: 9.2 µM |  |

| SMILES | Potency | activity, negative = toxicity |
| --- | --- | --- |
| CCC(CC)C(=O)N(C)c1c(C)nc2c(OCc3ccc(C(F)(F)F)cc3)cccn12 | inconclusive [cytotoxic, single point] |  |
| Cc1nc(-c2ccc(S(=O)(=O)Nc3ccccc3C)cc2)co1 | inconclusive [cytotoxic, single point] |  |
| Cc1ncc(CO)c(/C=N/NC(=O)c2cc(Br)ccc2O)c1O | inconclusive [cytotoxic, single point] |  |
| Oc1cccc(C2c3[nH]c4ccccc4c3CCN2Cc2ccc3c(c2)CCO3)c1 (centres undefined) | active: 23.1 µM |  |
| COc1cccc2sc(Nc3nnc(-c4cccs4)o3)nc12 | inconclusive [cytotoxic, partial curve] |  |
| Cc1ccc(OCC(=O)Nc2ccc(CN3CCCCC3)cc2)c(C)c1 |  | inconclusive: -30.2% [cytotoxic] |
| Cn1cnc2c(cnn2C)c1=N | inactive |  |
| O=C(O)C1CC(=O)N(c2ccc(OCc3ccc(Cl)cc3Cl)cc2)C1 (centres undefined) | inconclusive [cytotoxic, single point] |  |
| COc1cc(/C=C2/SC(=Nc3ccc(O)cc3)NC2=O)ccc1O | active: 1.16 µM |  |
| COc1ccc(C(CC(=O)O)N2C(=O)CCC2=O)cc1 (centres undefined) | inactive |  |
| COc1ccc(CC(N)c2csc(NC(=O)C(c3ccccc3)c3ccccc3)n2)cc1 (centres undefined) | active: 20.6 µM |  |
| CCN1CCN(C(=O)c2nn(C)c3c2CS(=O)(=O)c2ccccc2-3)CC1 | inconclusive [rising, single point] |  |
| O=C1[C@H]2[C@@H](c3ccc(C(F)(F)F)cc3)N[C@]3(CCCN(Cc4ccccc4)C3=O)[C@H]2C(=O)N1Cc1ccccc1 | inconclusive [cytotoxic, single point] |  |
| Cc1onc(-c2ccccc2)c1C(=O)NC(=S)NNC(=O)c1ccncc1 |  | inconclusive: -30.1% [cytotoxic] |
| NC(=O)c1c(NC(=O)CSc2nnc(Cc3ccccc3)n2Cc2ccco2)sc2c1CCC2 | inconclusive [cytotoxic, single point] |  |
| COc1ccc(CNC(=O)C[C@H]2C[C@H](C(=O)N3CCOCC3)[C@@]3(CCC4CCCC4)c4[nH]c5cc(-c6ccco6)ccc5c4CCN3C2=O)cc1OC | inconclusive [cytotoxic, partial curve] |  |
| N=c1c2c(-c3ccccc3)c(-c3ccccc3)n(Cc3ccco3)c2ncn1Cc1ccco1 | active: 20.6 µM |  |
| Cc1cc(/C=C\c2ccc3cc(N(C)C)ccc3[n+]2C)c(C)n1-c1ccccc1 | active: 1.46 µM |  |
| C/C(CC(=O)Nc1ccc(Cl)c(C(F)(F)F)c1)=N\NC(=O)c1ccccc1O | inconclusive [cytotoxic, single point] |  |
| Cc1nn(-c2ccccc2)c(N2CCCC2)c1/C=N/NC(=S)Nc1ccccc1F | inconclusive [cytotoxic, partial curve] |  |
| O=C(/C=C/c1ccc(N2CCOCC2)cc1)c1ccccc1 | inactive |  |
| CN(C)CCn1c(=N)n(CC(O)c2ccc(Cl)c(Cl)c2)c2ccccc21 (centres undefined) | inconclusive [cytotoxic, single point] |  |
| O=C(NCc1ccccc1)C(c1ccccc1)n1c(-c2ccccn2)nc2ccccc21 (centres undefined) | inconclusive [cytotoxic, single point] |  |

| SMILES | Potency | activity, negative = toxicity |
| --- | --- | --- |
| CCOC(=O)c1nnn2c1nc(Nc1cccc(C(F)(F)F)c1)c1ccccc12 | inactive |  |
| CCOc1cc(C(=O)OCC(=O)Nc2cc(C)on2)cc(OCC)c1OCC | inactive |  |
| O=[N+]([O-])c1cc(-c2csc(NCCc3nc4cc(C(F)(F)F)ccc4n3CCCO)n2)ccc1Cl | inactive |  |
| O=C1NC(=O)/C(=C\c2cn(Cc3ccccc3F)c3ccccc23)N1 | inconclusive [cytotoxic, single point] |  |
| CCOc1ccc2c(c1)sc(N)[n+]2Cc1cc(C)cc2cccnc12 | active: 3.26 µM |  |
| Cc1ccc(S(=O)(=O)N(C)C)cc1NC(=S)Nc1ccc2[nH]c(=O)[nH]c2c1 | inactive |  |
| O=C(NCC1CCCO1)C(=O)NCC(c1ccco1)N1CCN(c2ccccc2)CC1 (centres undefined) | inactive |  |
| COc1ccc(NC(=O)c2nc(-n3nc(C)cc3C)ccc2Cl)cc1Cl | inactive |  |
| COc1cc(/C=N/NC(=O)c2ccccc2O)ccc1OCC(=O)Nc1ccccc1 | inconclusive [cytotoxic, single point] |  |
| O=c1nc(N/N=C/c2ccco2)cn[nH]1 | inconclusive [rising, single point] |  |
| COc1cc(OC)cc(C(=O)N[C@H](C(=O)Nc2nnc(C3CC3)s2)C(C)C)c1 | inactive |  |
| CC(C)(C)c1ccc(S(=O)(=O)Nc2noc3ccccc23)cc1 | inactive |  |
| Cc1cc(C(=O)NNC(=S)NC(=O)/C=C/c2ccccc2Cl)n[nH]1 | inconclusive [cytotoxic, single point] |  |
| O=C(NCc1nc(-c2ccc(C(F)(F)F)cc2)no1)Nc1cc(Cl)cc(Cl)c1 | inconclusive [cytotoxic, single point] |  |
| Cn1c2ccccc2c2cc(/C=N/NC(=O)c3cc(O)ccc3O)ccc21 | inconclusive [cytotoxic, partial curve] |  |
| CCOc1ccccc1C(=O)Nc1ccc2nc3n(c(=O)c2c1)CCCCC3 |  | inconclusive: -3.11% [cytotoxic] |
| CCN(CC)CCNC(=O)c1ccc2c(=O)n(C3CCCC3)c(=S)[nH]c2c1 | active: 20 µM |  |
| COc1cc(NC(=O)Cn2c(C)cc3ccccc3c2=O)cc(OC)c1OC | inconclusive [cytotoxic, single point] |  |
| O=C(O)COc1ccc(/C=C/C(=O)c2ccc3ccccc3c2)cc1 | inconclusive [cytotoxic, single point] |  |
| COC(=O)c1sccc1NC(=O)CSc1ccccc1NS(=O)(=O)c1cc(Cl)ccc1Cl | inconclusive [cytotoxic, single point] |  |
| CC(O)(c1cccc(F)c1)c1nc(-c2ccc3c(c2)OCO3)cs1 (centres undefined) | inconclusive [cytotoxic, single point] |  |
| Cc1c(CN(C)C)c2c(n1Cc1ccccc1)C(=O)c1ccccc1-2 | active: 16.4 µM |  |
| COc1ccccc1Nc1ncnc2c1c(C)c(C)n2CCCN(C)C | inactive |  |
